Test results as given in paper PMC12136788.
This is one part of the list.

B1: chr16:74621626:74621727:-|3pUTR|ENSG00000168411|msi1|total|mutant (ssRNA)
RNA: GGGAGUUCUACAGUCCGACGAUCCAUCUCAAAAAAAACAAACAAACAAAAAAAAACCCUGAUGCCAUUCCCAGUCCCCGUUGCCGGACAUCACAUUUAUAAAUCCAGGCUUCCGUCUUCUGGGCUCCACCAGUCUCUGCCCCACAACAGAGGAUUGAGCAUCA
B2: chr9:15468732:15468834:-|CDS|ENSG00000164985|unk|FALSE|unique (ssRNA)
RNA: GGGAGUUCUACAGUCCGACGAUCAAUUAGGAAAACAAUUAUGAUGAAUGUAUAUUGUUUUCUCAGAUACGGCGAUUCAAAGUUAGUCAGGUAAUCAUGGAAAAGUCUACAAUGUUGUAUAACAAGUUUAAGAACAUGUUCUUGCAACAGAGGAUUGAGCAUCA
B3: chr5:37333503:37333606:-|CDS|ENSG00000113569|unk|total|mutant (ssRNA)
RNA: GGGAGUUCUACAGUCCGACGAUCGAUGACAGCUGGUGUUGAUGGUCAUUCCUGGGCUCUUUCUGCGACCGAUGAAUUGAAAGCCGAUAAAAUAAUUACACCUUUAAACAAGGAUCAUAUUCCAAUAACUGAUUCACCAGUUGUCAACAGAGGAUUGAGCAUCA
B4: chr12:133218311:133218884:-|three_prime_utr|ENSG00000227059|control|control|control (ssRNA)
RNA: GGGAGUUCUACAGUCCGACGAUCAGAGUUCCCCUGGGGGCUCUGCUGAAAAGCAGAGAUUCUUUCCCACUGCCAUGUUUGAAUAGUUUGGUUAGCAAUUCCCUGUAGUAGAGAAAGCAUUUGAGAAAUGUUCGUGAGAUCAGACAACAGAGGAUUGAGCAUCA
B5: chr7:94537565:94537673:+|CDS|ENSG00000127995|unk|FALSE|unique (ssRNA)
RNA: GGGAGUUCUACAGUCCGACGAUCGAAGCCUGUAGAUGGGUCCUGUUGUCAACCUCGGCCUCCUGUUACUCUCAUACAGAAGCUAGCUGCUUGUUUUUUCACUUUAUCUAUUAUCGGAUAUUUAAUUUUUUACAUAAUUCAUCGCAACAGAGGAUUGAGCAUCA
B6: chr5:157463210:157463311:+|CDS|ENSG00000172548|unk|total|mutant (ssRNA)
RNA: GGGAGUUCUACAGUCCGACGAUCCAGGAAAGAAUCAGGCAGAACUAUGGCUUCUACAUCGGCCUGGGCCUGGCAUUCCUGUCCCGCUUCCUCAUCGGCAGCAGCGUCAUCCUCAAGAAGAAAGGCCUCUUGCGACUCGUGGCCCAACAGAGGAUUGAGCAUCA
B7: chr19:18306235:18307555:-|three_prime_utr|ENSG00000130520|control|control|control (ssRNA)
RNA: GGGAGUUCUACAGUCCGACGAUCCAGAAAGGAAGAGGCAGGCGCCAGGGGGAACCCCCUUCGUGUUUUGUGACCCUCCCUUUUAGGUGAAGCCCCUUUUUCUUGCUAAAACCGGCAAUUCUCCGGUUAGAAAUGUUACUUGGUCAACAGAGGAUUGAGCAUCA
B8: chr7:99546688:99548407:-|CDS|ENSG00000221909|control|control|control (ssRNA)
RNA: GGGAGUUCUACAGUCCGACGAUCCUUGACACGGUUAAAAACAAAGAAGAGAAAUAGGCUCAAUAGUGCACCAGAUAUGCGGGUAGCAUUAUCUUCAUGUGUUCCUGACUGGAAGGAACUUAUGAACAGACAAGCACACCCAUCCAACAGAGGAUUGAGCAUCA
B9: chr15:52122579:52122653:-|3pUTR|ENSG00000069966|msi1_unk|FALSE|overlapping (ssRNA)
RNA: GGGAGUUCUACAGUCCGACGAUCUCUUCACAUGUAAAUAGAUAUUACUUCUAGAGGAGCUUAGAGUUUAUUGCAGUGUAGCUUAGGGGAGCAACCCAUGGCUCACAGGUCACUAAGCGUCUCCAAUAUGACUAUUAAAACUGUCAACAGAGGAUUGAGCAUCA
B10: ENSG00000070961:be:win_1901|CDS|ENSG00000070961|bound_else_gene|NA|bound_elsewhere_windowed (ssRNA)
RNA: GGGAGUUCUACAGUCCGACGAUCAAACUGUGAUUGAACCGAUGGCAUCAGAAGGCUUGAGAACCAUAUGUCUUGCAUUCAGAGAUUUUCCAGCAGGAGAACCAGAACCAGAGUGGGAUAAUGAAAAUGAUAUUGUCACCGGCCCAACAGAGGAUUGAGCAUCA
B11: chrX:101412715:101412817:+|CDS|ENSG00000126945|unk|FALSE|unique (ssRNA)
RNA: GGGAGUUCUACAGUCCGACGAUCGGGUAUGGAGGCUAUGAUGACUAUGGUGGCUAUAAUGAUGGAUAUGGCUUUGGGUCUGAUAGAUUUGGAAGAGACCUCAAUUACUGUUUUUCAGGAAUGUCUGAUCAUAGAUACGGAGAUCAACAGAGGAUUGAGCAUCA
B12: chr7:73831540:73831641:+|CDS|ENSG00000189143|msi1|FALSE|unique (ssRNA)
RNA: GGGAGUUCUACAGUCCGACGAUCCAAGGCCAAGACCAUGAUCGUGGCGGGCGUGGUGUUCCUGUUGGCCGGCCUUAUGGUGAUAGUGCCGGUGUCCUGGACGGCCCACAACAUCAUCCAAGACUUCUACAAUCCGCUGGUGGCCAACAGAGGAUUGAGCAUCA
B13: chr10:95611293:95611394:-|CDS|ENSG00000059573|msi1|total|mutant (ssRNA)
RNA: GGGAGUUCUACAGUCCGACGAUCCCCCUCCGAAGUGAAGUCACUCCGAACUGAGUAUGGGGACCUGGAAUUAUGCAUUGAAGCCGUGGACAACGUUCAGGAUGCCAUUGACCACAUCCACAAGUAUGGCAGCUCCCACACGGACAACAGAGGAUUGAGCAUCA
B14: chr12:81257974:81259660:-|three_prime_utr|ENSG00000139220|control|control|control (ssRNA)
RNA: GGGAGUUCUACAGUCCGACGAUCAUGACUUAUUAAAAGCUGAAAAAUGUGAUUUUUGGGGGGAGUCAGAUAUUACAUUUGAUUAGUUUACUACAAAUUGUAAUAAAAUGCUUAAGUCAUUUGAAUAAUAAACAUCAUCUACAUCAACAGAGGAUUGAGCAUCA
B15: chr12:56162362:56162467:-|3pUTR|ENSG00000139613|unk|total|mutant (ssRNA)
RNA: GGGAGUUCUACAGUCCGACGAUCGGUUCCUCCCACCAGGCCCUUUGUUCCUCAUGUCCCCAUGUUUCUCUCCCUCUGCGUCUCCGCACCUUUCUUCUGUUCAAAGUUUUCUGUAAAUUUUCUCUUUUUUUCUUUCUUUCUUUUCAACAGAGGAUUGAGCAUCA
B16: chr1:217137657:217137758:-|5pUTR|ENSG00000196482|msi1|FALSE|unique (ssRNA)
RNA: GGGAGUUCUACAGUCCGACGAUCCGGGCUCCAGGCCGGGCUCCCUAAACGGGUCAGCAAUUGGAGCGGGAAGGCCGGACAGGUAGGUGGCGUGGGGCGCACAAGCCCGGCAGCGAUAACCGGGGACGUCUGUACUGCUUCCAACAACAGAGGAUUGAGCAUCA
B17: chr16:58599380:58599482:-|5pUTR|ENSG00000125107|unk|total|mutant (ssRNA)
RNA: GGGAGUUCUACAGUCCGACGAUCCAGAACAGAGUAAGACCCCUGGUAAAGAAGAACUGAAGAUAUUAUACAGAUACCAGAUACCGCCUAAUUACAAAGAAAGCAUUAACCUGCCUCUGAGGUGACUAAAGGGGAAUAAUGGUGCAACAGAGGAUUGAGCAUCA
B18: chr10:7163078:7163179:-|3pUTR|ENSG00000198879|unk|FALSE|unique (ssRNA)
RNA: GGGAGUUCUACAGUCCGACGAUCAGAGGUGCCUUUUAGGAAUACGGGGAGUGAAGGAAGGCCGGCAGGCAUCUCCAUGCAACUAGAUGGUUUGUUUGUUUGUUUGUUUGUUUGUUGUUCAUUUUGUUGUGUUUUUUGAGACAGCAACAGAGGAUUGAGCAUCA
B19: chr13:45969211:45969312:-|CDS|ENSG00000123200|unk|total|mutant (ssRNA)
RNA: GGGAGUUCUACAGUCCGACGAUCGUCCCUGACCGUACAGAGGUGACAGAAGCAGAGCAUACUGCCACCGCCACGACUCCUGGCCGUACCCCUUCUCCUCUAUCUUCUCUUCUUCCUCCUCCACCGCCUGUGGCUACUGCCACUCAACAGAGGAUUGAGCAUCA
B20: ENSG00000198589:be:win_5151|CDS|ENSG00000198589|bound_else_gene|NA|bound_elsewhere_windowed (ssRNA)
RNA: GGGAGUUCUACAGUCCGACGAUCGCAGUUCAGAUCUUUUGACAGAAGUGUCAUUGUUGCAGCAAAAAAGUCAGCAGUCUCACCUUCCACCUUUAAUACAAGCAUACCUACCAAUGCUGUCAGUGUGGUUUCCUCAGUAGAUUCCAACAGAGGAUUGAGCAUCA
B21: chr5:10236899:10237040:-|CDS|ENSG00000150756|control|control|control (ssRNA)
RNA: GGGAGUUCUACAGUCCGACGAUCUAUUAUUACUUGUUCACAAAACCAUCCUCCCAGACACUUUCAUUUCACUGCUGCUGUGCUAGCCCACUGAUGGAGAGAUGCAGUGGAUUUUCAGCAAUGUUUUGUUCGACCUCCCCGGGGCAACAGAGGAUUGAGCAUCA
B22: chr3:45823315:45826332:-|three_prime_utr|ENSG00000163818|control|control|control (ssRNA)
RNA: GGGAGUUCUACAGUCCGACGAUCUCAGGCAUGUAUUUUGAAAAGCAUUUUGUCAUAUCCCCUCUCCUUAUUUUUCUAAUAUUUAGACUUUGAAUAUUUAGAACUAGAGUUCCUAUUUUCAGCUAGUUGAAAACAGAGAAAACCCAACAGAGGAUUGAGCAUCA

target: MSI1 full-length (mouse, UniProt Q61474 1-362); assay: nsRBNS (natural sequence RNA bind-n-seq); RBNS binding buffer (assumed for nsRBNS): 25 mM Tris pH 7.5, 150 mM KCl, 3 mM MgCl2, 0.01% Triton X-100, 500 ug/ml BSA, 20 U/ml SUPERase-In, 4 C; UNK is unkempt and MSI1 is Musashi-1; names of the RNAs are library labels; protein concentration not given here; high values mean tight binding
Sequence of UniProt Q61474 (Q61474 whole entry): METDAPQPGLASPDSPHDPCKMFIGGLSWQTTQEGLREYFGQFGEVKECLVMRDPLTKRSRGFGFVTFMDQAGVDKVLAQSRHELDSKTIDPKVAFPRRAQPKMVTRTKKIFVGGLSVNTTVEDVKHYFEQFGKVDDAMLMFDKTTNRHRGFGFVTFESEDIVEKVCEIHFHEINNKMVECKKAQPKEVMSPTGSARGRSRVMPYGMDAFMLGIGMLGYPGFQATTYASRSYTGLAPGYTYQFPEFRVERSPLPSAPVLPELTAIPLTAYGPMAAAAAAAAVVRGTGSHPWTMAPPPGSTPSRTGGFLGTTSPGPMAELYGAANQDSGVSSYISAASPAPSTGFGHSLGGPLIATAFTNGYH

Binder	binding signal [enrichment R]
B1	0.991
B2	0.966
B3	0.359
B4	6.25
B5	2.88
B6	0.586
B7	0.565
B8	0.439
B9	1.29
B10	0.318
B11	0.771
B12	0.372
B13	0.291
B14	0.9
B15	1.14
B16	0.526
B17	0.791
B18	2.59
B19	0.983
B20	0.49
B21	0.919
B22	5.79
